Data published in PubChem BioAssay AID493208 (National Center for Advancing Translational Sciences (NCATS), 2011).
Hit rate of the full screen: of about 44,000 compounds, about 340 (0.77%) were called active. Inconclusive results (about 5%) are left out. Calls follow the shape of the dose curve; as a rule, active = well fitted inhibition curve with a large enough effect; inconclusive = small, poorly fitted or top-dose-only effect; inactive = flat fitted curve, though single readings scatter. The list shows a part of the results.

Assay: Acumen qHTS Assay for Inhibitors of the mTORC1 Signaling Pathway in MEF (Tsc2-/-, p53-/-) Cells: Sytravon;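 also: plate controls were DMSO for no effect and rapamycin for full effect; nearly all actives have a fitted effect of over 50% in size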
Details: phospho-rpS6 immunofluorescence/PI, 24 h; series mostly up to 38.3 µM; activity change, negative = inhibition: at the top concentration
Outline: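 Cell-based qHTS: Tsc2-/- p53-/- MEF, 24 h cpd, 37 °C; fix/perm, anti-phospho-S6 Alexa-488 + PI; Acumen 488 nm scan; pS6/PI ratio, % positive cells; rapamycin 7.5 nM = inhibition ref; PI count = viability.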

Activity change, negative = inhibition, inactive:
CCC1CN(C(=O)N2CCC(C(=O)N3CCN(c4ccccc4)CC3)CC2)c2ccccc2O1 (stereo unspecified) 3.66%
CCOc1ccc(-n2c(SCC(=O)NCc3ccccc3)nc3n[nH]c(C)c3c2=N)cc1 -12.4%
CCOC(=O)N1CCc2c(sc(NCc3ccc(N(CC)CC)cc3)c2C(=O)Nc2cc(OC)ccc2OC)C1 -0.694%
Cc1cc(C)n(C(C)CC(=O)Nc2ccc(Cl)cc2C)n1 (stereo unspecified) 7.97%
COc1cccc(CN2C(=O)C3(SCC(=O)N3c3ccc(C)c(Cl)c3)c3ccccc32)c1 (stereo unspecified) -4.82%
CC1Cc2cc(S(=O)(=O)CCC(=O)Nc3ccccc3F)ccc2N1C(=O)C1CC1 (stereo unspecified) -3.19%
CCOC(=O)c1cc(-c2ccc(C)cc2)n(CCCC(=O)Nc2cc(C)ccc2C)c1 -7.21%
CCCCC(=O)N1CCc2cc(OC)c(OC)cc2C1COc1ccc(C(=O)OCC)cc1 (stereo unspecified) 10.9%
Cc1cccc(C(=O)n2nc(C)c(S(=O)(=O)N3CCOCC3)c2C)c1 -7.66%
CCOc1ccccc1NS(=O)(=O)c1cc2[nH]c(=O)c(=O)[nH]c2cc1C 1.06%
COc1ccc(Cn2ccc3nc(C)c(C(=O)Nc4cc(OC)c(OC)c(OC)c4)cc3c2=O)cc1 -10.9%
CCOc1ccc(Sc2cc(C(=O)NCc3ccc(C)cc3)c3ccccc3n2)cc1 0.294%
COCCCn1c(=N)c(C(=O)NC2CCCC2)cc2c(=O)n3cccc(C)c3nc21 -0.505%
Nc1c(C(=O)NCc2cccs2)nnn1CC(=O)Nc1cccc(F)c1 -8.07%
COC(=O)c1scc(-c2ccc(C)cc2)c1S(=O)(=O)N1CCN(c2ccc(F)cc2)CC1 -1.39%
Cc1cc(C)c(S(=O)(=O)NCCc2sc3nc(-c4ccc(F)cc4)nn3c2C)c(C)c1 -0.445%
CCC1CCCCN1C(=O)c1c[nH]c2ccc(S(=O)(=O)Nc3cccc(OC)c3)cc2c1=O (stereo unspecified) 0.745%
O=C(NCc1ccco1)c1ccc2c(c1)N(Cc1ccccc1)C(=O)c1ccccc1S2 2.64%
O=C(NC1CCCCC1)c1ccc(CSc2nc3cccnc3n2Cc2cccc(F)c2)cc1 -0.759%
Cc1cc(C)cc(-n2ccn(CC(=O)c3ccc(F)cc3)c(=O)c2=O)c1 4%
CCOc1ccc(NC(=O)CCc2c(C)nc3cc(-c4ccccc4OC)nn3c2C)cc1 -5.76%
COC(=O)c1ccc(CSc2c(C(C)C)cnc3c2c(=O)n(C)c(=O)n3C)cc1 10.7%
Cc1c(NC(=O)Nc2ccc(Cl)c(Cl)c2)sc2nc3n(c(=O)c12)CCC(C)CC3 (stereo unspecified) -3.9%
Cc1ccc(N(C)S(=O)(=O)c2ccc3[nH]c(=O)ccc3c2)cc1 -7.39%
O=C(O)c1ccc(NS(=O)(=O)c2ccc(Cl)c(C(=O)Nc3ccccc3)c2)cc1 -8.87%
Cc1ccc(NC(=O)c2sc3ncnc(N(C)C4CCCCC4)c3c2C)c(C)c1 1.72%
O=C(c1ccc(CS(=O)(=O)c2ccc(Br)cc2)o1)N1CCN(c2ccc(F)cc2)CC1 -12.9%
COc1ccc(NC(=O)c2cnn(-c3ccc(C)c(C)c3)c2C2CCNCC2)cc1OC -4.56%
O=C(Nc1nc2n(n1)C(c1ccc(F)cc1)C=C(c1ccc(Cl)cc1)N2)c1ccc([N+](=O)[O-])cc1 (stereo unspecified) 1.72%
Cc1cccc(C2=Nc3ccccc3N=C(c3cc(Cl)ccc3O)C2)c1 16.1%
Cc1oc2c(cc(NS(=O)(=O)c3ccc(C(C)C)cc3)c3ccccc32)c1C(=O)OCc1ccccc1 -7.43%
O=C(Nc1cccc(Br)c1)N1CCN2CCCCC2C1 (stereo unspecified) 0.0523%
CCCNC(=O)Cn1nc(-c2ccc(OC)cc2)c2cnc3ccc(F)cc3c21 -5.4%
COc1ccc(OC)c(CNC(=O)c2cc3c(Cl)nc4ccccc4c3s2)c1 -17.9%
Cc1cccc(NC(=O)/C(C#N)=C/c2ccco2)c1 -4.32%
CCOc1ccc(-n2c(C)nc3cc(C(=O)NC4CCCC4)ccc32)cc1 -0.681%
COc1ccccc1CC(=O)Nc1ccc2nc(Nc3cccc(C(F)(F)F)c3)cc(C)c2c1 -6.73%
COc1ccc(CNC(=O)Cn2c(=O)n3nc(-c4ccc(OC)cc4)nc3c3ccccc32)cc1 -4.51%
COc1ccc(NC(=O)C(c2ccccc2)N(C)C(=O)/C=C\c2ccc3c(c2)OCO3)cc1 (stereo unspecified) -23.4%
CCOc1ccc(C(=O)Nc2ccc3nc(Nc4cccc(C(F)(F)F)c4)cc(C)c3c2)cc1OCC 0.941%
COc1ccc(C(CC(=O)Nc2cc(Cl)c(OC)cc2OC)N2Cc3ccccc3C2=O)cc1 (stereo unspecified) -3.92%
COc1ccc(-c2c(C)nn3c(C(F)(F)F)cc(-c4ccc(C)cc4)nc23)cc1 -0.0881%
CCOc1ccc(NC(=O)N2CC3CCCN3c3ccccc32)cc1 (stereo unspecified) -6.9%
CC(=O)NNc1ncnc2c1cnn2-c1ccccc1 4.83%
Cc1ccccc1NS(=O)(=O)c1ccc2[nH]cc(C(=O)NCCc3ccccc3)c(=O)c2c1 0.166%
COC(=O)c1cnc(N2CCN(c3ccc(OC)cc3)CC2)c2ccccc12 5.08%
CCCCc1ccc(NC(=O)CSc2nc3ccccc3nc2N2CCCCC2)cc1 -2.4%
CCOC(=O)c1ccc(NC(=O)CS(=O)(=O)Cc2nc(-c3ccc(C)cc3)oc2C)cc1 -7.95%
COC(=O)c1c(-c2ccc(Cl)cc2)noc1N1CCN(c2ccc(C(C)=O)cc2)CC1 -15.1%
CCCNC(=O)CCc1c(C)nc2nc(CNC(=O)c3ccccc3)nn2c1C -5.56%
CCOc1ccc(NC(=O)C(CC)n2nc(C)c3c(C)n(-c4ccccc4)nc3c2=O)cc1 (stereo unspecified) 0.108%
Cc1ccc(NC(=O)CN2C(=O)CC(c3ccco3)Sc3ccccc32)cc1Cl (stereo unspecified) 0.997%
COc1cc(OC)c(NC(=O)Nc2ccc3c(c2)N(C)C(=O)c2ccccc2S3)cc1Cl -18.5%
Cc1ccc(-c2onc(C)c2C)cc1S(=O)(=O)N1CCN(c2ccccc2F)CC1 5.41%
COc1cc(OC)cc(-n2c(=O)c3sccc3n(Cc3ccc(F)cc3)c2=O)c1 -1.66%
COc1cc(C(CC(=O)NCc2ccccc2Cl)N2Cc3ccccc3C2=O)cc(OC)c1OC (stereo unspecified) -0.283%
COc1cccc(NC(=O)CCNC(=O)Cn2cnc3ccccc3c2=O)c1 1.85%
CCn1c2ccccc2c2cc(CN3CCN(Cc4cccc(Cl)c4)CC3)ccc21 -9.35%
COC(=O)c1ccccc1NC(=O)CCCn1nc(C)c2c(C)n(-c3ccccc3)nc2c1=O -3.62%
Cc1ccc(C(=O)O)cc1NC(=O)c1nsc2ccccc12 -5.71%
COc1ccc(CCNC(=O)CN2C(=O)COc3ccc(S(=O)(=O)N4CCCC4)cc32)cc1OC -1.46%
Cc1ccc(Cl)cc1N1CCN(c2nc3ccccc3c3nc(-c4cccnc4)nn23)CC1 -3.69%
Cc1ccc(CNC(=O)c2cc(-c3ccc(C)c(C)c3)nc3ccccc23)cc1 4.96%
Cc1cc(Cl)ccc1NC(=O)CSc1nc2c(c(=O)[nH]1)CCC2 -7.63%
COC(=O)c1sc(N2C(=O)c3oc4ccc(C)cc4c(=O)c3C2c2ccc(OC)cc2)nc1C (stereo unspecified) 9.18%
CCCOc1ccc(Oc2nc(NC)nc(N3CCOCC3)n2)nn1 1.96%
Cc1ccc(NC(=O)C(=O)NCC(c2cccnc2)N2CCN(Cc3ccccc3)CC2)cc1Cl (stereo unspecified) 11.9%
CCOc1ccc(CCNC(=O)c2cnc3sc(N4CCCCC4)nn3c2=O)cc1 5.61%
COC(=O)Cc1c(C)nc2nc(-c3ccc(C)cc3)[nH]n2c1=O -11.1%
CCOc1cccc2sc(NC(=O)CS(=O)(=O)c3ccc(C)cc3)nc12 -3.06%
CCN(Cc1ccccc1)S(=O)(=O)c1ccc(F)c(C(=O)Nc2cc(C(F)(F)F)ccc2Cl)c1 -0.219%
COc1ccc(N2C(=O)CSC23C(=O)N(CC(N)=O)c2ccccc23)cc1 (stereo unspecified) 2.81%
COc1ccc(-n2c(=O)c3sc4ccccc4c3n(CC(=O)NC3CCCCC3)c2=O)cc1 -12.8%
CC(C)c1ccc(N2C(=O)N(Cc3ccccc3Cl)c3ccccc3S2(=O)=O)cc1 -8.21%
O=C(Nc1cc(C(F)(F)F)ccc1Cl)c1cnn(-c2ccccc2)c1-n1cccc1 -1.21%
COC(=O)c1ccc([C@H]2Nc3ccc(S(=O)(=O)Nc4cccc(C)c4)cc3[C@H]3C=CC[C@H]32)cc1 1%
COCCNC(=O)CCCn1c(SCc2ccccc2Cl)nc2c(sc3ccccc32)c1=O 0%
COC(=O)c1c(-c2ccccc2)c(-c2ccccc2)nn(C)c1=O 1.93%
CCCCOc1ccc(C(=O)N(Cc2ccco2)Cc2ccco2)cc1 0.766%
COc1ccccc1C1CC(=O)N(c2cccc(C(F)(F)F)c2)C2=C1C(=O)OC2 (stereo unspecified) 5%
CCC(=O)Nc1nnc2n1CCS2 -1.55%
Cc1cccc(N(CC(N)=O)C2SC(=O)N(Cc3cccc(C(=O)O)c3)C2=O)c1 (stereo unspecified) -2.2%
Cc1cc(Br)cc2c(C(=O)OCC(=O)c3ccccc3)cc(-c3ccccc3)nc12 3.08%
Cc1c(-c2nnc(SCC(=O)Nc3ccc(Cl)cc3)o2)nnn1-c1ccc(F)cc1 4.07%
COc1ccccc1N1CCN(C(=O)c2cnc(N3CCOCC3)c3ccccc23)CC1 -12.5%
Cc1cc(CN2CCN(c3ccc(F)cc3)CC2)cs1 3.15%
O=c1[nH]c(SCc2cccc(Cl)c2)nc2c1CCC2 0.205%
CCN1CCSc2ccc(C(=O)NCc3ccccc3Br)cc21 -9.91%
COc1ccc(Cn2c(CO)cnc2SCc2cccc(C)c2)cc1 0.549%
COc1ccccc1N1CCN(C(=O)CCS(=O)(=O)c2cc(Br)cc3c2N(C(C)=O)CC3)CC1 0.68%
O=C(COc1ccc(Cl)cc1)NCC(c1ccco1)S(=O)(=O)c1ccc(Cl)cc1 (stereo unspecified) -5.87%
Cc1cc(C)c2oc(-c3ccc(C)c(NC(=O)/C=C/c4ccco4)c3)nc2c1 -0.434%
COc1ccc(CNC(=O)c2cc3c(=O)n(C)c4ccccc4c3n2C)c(OC)c1 2%
Cc1nc(N2CCCC2)ncc1C(=O)N1CCN(c2ccccc2F)CC1 9.98%
CCS(=O)(=O)c1c(Nc2cc(C)ccc2C)sc(C(=O)c2ccccc2)c1N 0.923%
Cc1ccc(C(=O)n2nc(C)c(S(=O)(=O)N3CCOCC3)c2C)cc1C 0.896%
